# According to PubChem BioAssay AID686978 (National Center for Advancing Translational Sciences (NCATS), 2013):
# Screen size: about 420,000 compounds; about 64,000 (15%) were called active. This list was built around the results that the source calls inconclusive (neither active nor inactive); the mix of calls is not that of the screen. The call rests on the fitted dose curve; in most records, active means well fitted inhibition curve with a large enough effect; inconclusive means small, poorly fitted or top-dose-only effect; inactive means flat fitted curve, though single readings scatter. No potency is given beside an inconclusive call; the fits are too rough.
# Assay: qHTS for Inhibitors of human tyrosyl-DNA phosphodiesterase 1 (TDP1): qHTS in cells in absence of CPT; further: nearly all actives have a fitted effect of over 55% in size
# Settings: DT40 Tdp1-/- hTDP1 cells, no CPT, ATP luminescence, 48 h; activity change, negative = growth inhibition: at 46.2 µM (top of the series) unless noted
# Procedure, shortened: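 Camptothecin absent (DMSO only). Human TDP1-complemented DT40 knockout cells, 400 cells/well, 37 °C for minimum 48 hr; ATP measured via CellTiter-Glo, 30 min dark incubation, luminescence.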
# On the % scale 0 is the no-effect control and ±100 the full control effect; potency means the concentration at half of the fitted maximal effect; tags describe the fitted curve by direction and shape.
SMILES,"activity change, negative = growth inhibition",Potency
CCN(CC)S(=O)(=O)c1ccc(OC)c(NS(=O)(=O)c2cccc(C(=O)O)c2)c1,inactive: 0.948%,
Cc1ccc(/C=C/C(=O)Nc2cccc(S(=O)(=O)N3CCOCC3)c2)o1,,"inconclusive [inhibitor, partial curve, poor fit]"
COc1ccc(CC(NC(C)=O)C(=O)NC2CCN(C(=O)NCc3ccccc3)CC2)cc1OC (stereo not drawn),inactive: -11.3%,
CCCOc1ccc(C(=O)OCC(=O)NCCc2ccc(OCC)c(OCC)c2)cc1OC,,"inconclusive [inhibitor, single point]"
CCN(CC)S(=O)(=O)c1ccc(N2CCOCC2)c(NC(=O)CCC2CCCCC2)c1,,"inconclusive [inhibitor, single point]"
Cc1ccc(/C=C/C(=O)Nc2ccc(O)c3c(=O)cc(-c4ccccc4Cl)oc23)cc1,,"inconclusive [inhibitor, single point]"
Oc1ccc(C=NN=C2c3ccccc3-c3ccccc32)c(O)c1,,active: 14.6 µM
COc1ccc(NC(=O)c2cc(OC)c(OC)c(OC)c2)cc1S(=O)(=O)N1CCCCC1,,"inconclusive [inhibitor, single point]"
Cc1ccc(S(=O)(=O)N2C[C@H]3C(=O)C[C@@H](c4ccccc4)N(S(=O)(=O)c4ccccc4C)[C@H]3C[C@H]2c2ccccc2)cc1,,"inconclusive [inhibitor, single point]"
CCOC(=O)c1cccc(NC(=O)N2CCC(CN3CCCCCC3)CC2)c1,,"inconclusive [inhibitor, single point]"
CCCC(C(=O)N(C)CC(=O)Nc1ccc(N2CCOCC2)cc1)c1ccccc1 (stereo not drawn),inactive: -15.3%,
COc1ccc(CCc2cc(OC)cc(=O)o2)cc1,inactive: -18.3%,
O=C(NCc1ccco1)c1ccc(Cn2c(=O)c3sccc3n(Cc3cccc(F)c3)c2=O)cc1,inconclusive: -30.1% [inhibitor],
CNC(=O)C1CCC(Cn2c(=O)c3sccc3n(CC(=O)Nc3cc(F)ccc3F)c2=O)CC1 (stereo not drawn),inconclusive: -30% [inhibitor],
CC(C)CCN(C(=O)c1csnn1)C(C(=O)NC1CCCCC1)c1ccc(F)cc1 (stereo not drawn),,"inconclusive [inhibitor, partial curve]"
CN1CCN(C2=Nc3ccccc3Cc3ccccc32)CC1,,"inconclusive [inhibitor, single point]"
CC(=O)Nc1cccc(NC(=O)CSc2cn(CC(=O)N3CCCCCC3)c3ccccc23)c1,,"inconclusive [inhibitor, single point]"
Cc1c(Cl)c(C(=O)NC2C3CC4CC(C3)CC2C4)nn1C (stereo not drawn),,"inconclusive [inhibitor, single point]"
